Experimental data as given in patent US6649595B2, “Regulation of biological events using novel compounds” (ARIAD Gene Therapeutics, Inc., priority 1995, dated 2003).

Assays:
[1] = system: HT1080 cells transfected with ZFHD1-3FKBP, 1FRB-p65 and SEAP reporter gene; test: Rapamycin-dependent SEAP transcriptional activation in transiently transfected cells; format: cell-based, human; conditions: transient transfection
Excerpt: See WO 96/41865, FIG. 4A.
Background SEAP activity, measured from mock-transfected cells, was subtracted from each value.

[2] = system: stably transfected HT1080 clone (SEAP target gene, ZFHD1-3FKBP, 1FRB-p65); conditions: 100 nM rapamycin; SEAP assay length increased about 50-fold

## CO[C@H]1C[C@@H]2CC[C@@H](C)[C@@](O)(O2)C(=O)C(=O)N2CCCC[C@H]2C(=O)O[C@H]([C@H](C)C[C@@H]2CC[C@@H](O)[C@H](OC)C2)CC(=O)[C@H](C)/C=C(\C)[C@@H](O)[C@@H](OC)C(=O)[C@H](C)C[C@H](C)/C=C/C=C/C=C/1C [rapamycin, Rapamycin]
[1]
  enhancement of SEAP over background levels in the absence of rapamycin: ≥ 1000 fold
[2]
  SEAP production: over 90,000 arbitrary fluorescence units
